# Data published in patent US10299477B2 (priority 2015, dated 2019).
# Legend:
# Assay type in all cases: in vivo
# Botrytis cinerea = test: Test Example B: Gray mold on tomato; conditions: for Test B control value (gray mold on tomato): preventive, control value class; for Test B (control value class, gray mold on tomato): in vivo
# Source text: [Test Example B] Gray Mold on Tomato
# Seeds of a test plant (tomato variety: Oogata Fukuju) were planted followed by cultivating until three to five first leaves (true leaves) appeared.
# Alternaia brassicicola = test: Test Example C: Alternaria sooty spot on cabbage; conditions: for Test C control value (Alternaria sooty spot on cabbage): preventive, control value class; for Test C (control value class, Alternaria sooty spot on cabbage): in vivo
# Source text: [Test Example C] Alternaria Sooty Spot on Cabbage
# Seeds of a test plant (cabbage variety: Shikidori) were planted followed by cultivating until the cotyledons extended.
# [1] = system: Blumeria graminis f sp. hordei; test: Test Example D: Powdery mildew on barley; conditions: for Test D control value (powdery mildew on barley): preventive, control value class; for Test D (control value class, powdery mildew on barley): in vivo
# Source text: [Test Example D] Powdery Mildew on Barley
# After the sprayed dilutions were dried, conidia of Blumeria graminis f sp. hordei were inoculated to the plants by shaking off.
# Puccinia recondita = test: Test Example E: Brown rust on wheat; conditions: for Test E control value (brown rust on wheat): preventive, control value class; for Test E (control value class, brown rust on wheat): in vivo
# Source text: [Test Example E] Brown Rust on Wheat
# Plasmopara viticola = test: Test Example G: Downy mildew on vine; conditions: for Test G control value (downy mildew on vine): 250 ppm spray (2.5 ml/pot), preventive, control value class; for Test G (control value class): 250 ppm spray; for Test G (control value class, downy mildew on vine): 250 ppm, sprayed 2.5 ml/pot before inoculation
# Source text: [Test Example G] Downy Mildew on Vine
# Seeds of a test plant (grape variety: Neomuscat) were planted followed by cultivating until three to four first leaves appeared. […] After the sprayed dilutions were dried, a zoosporangia suspension (1-2×10^4 zoosporangia/ml) of Plasmopara viticola was inoculated to the plants by spraying.
# [2] = gray mold on tomato, Botrytis cinerea, 250 ppm spray
# [3] = Alternaria sooty spot on cabbage, 250 ppm spray
# [4] = powdery mildew on barley, 250 ppm spray
# [5] = brown rust on wheat, Puccinia recondita, 250 ppm spray
# [6] = downy mildew on vine, Plasmopara viticola, 7-10 days after inoculation
# [7] = evaluated 7-10 days after inoculation
# [8] = Gray mold on tomato, control value=100{1-(n/3)}
# [9] = Alternaria sooty spot on cabbage, control value=100{1-(n/3)}
# [10] = Powdery mildew on barley, control value=100{1-(n/3)}
# [11] = Brown rust on wheat, control value=100{1-(n/3)}
# [12] = Downy mildew on vine, 2.5 ml/pot, evaluated 7-10 days after inoculation
structure (smiles),measurement,setting,value
COc1cc(-c2ccc(=O)n(C)c2-c2c(F)cc(Br)cc2F)cc(OC)c1Cl [Compound 206],Test B control value (gray mold on tomato),Botrytis cinerea; 250 ppm spray,H (H shows more than 50% of control values)
same,Test C control value (Alternaria sooty spot on cabbage),Alternaia brassicicola; 250 ppm spray,H (H shows more than 50% of control values)
same,Test D control value (powdery mildew on barley),[1]; 250 ppm spray,L (L shows 50% or less of control values)
same,Test E control value (brown rust on wheat),Puccinia recondita; 250 ppm spray,H (H shows more than 50% of control values)
same,Test G control value (downy mildew on vine),Plasmopara viticola; 7-10 days after inoculation,H (H shows more than 50% of control values)
O=c1c(Br)cc(-c2cc(F)ccc2Cl)c(-c2c(F)cccc2F)n1CC(F)F [Compound 393],Test B (control value class),Botrytis cinerea; [2],H (H shows more than 50% of control values)
same,Test C (control value class),Alternaia brassicicola; [3],L (L shows 50% or less of control values)
same,Test D (control value class),[1]; [4],H (H shows more than 50% of control values)
same,Test E (control value class),Puccinia recondita; [5],H (H shows more than 50% of control values)
same,Test G (control value class),Plasmopara viticola; [6],L (L shows 50% or less of control values)
COc1cc(F)c(-c2c(-c3ccccc3Cl)ccc(=O)n2C)c(F)c1 [Compound 433],Test B (control value class),Botrytis cinerea; [2],H (H shows more than 50% of control values)
same,Test C (control value class),Alternaia brassicicola; [3],H (H shows more than 50% of control values)
same,Test D (control value class),[1]; [4],H (H shows more than 50% of control values)
same,Test E (control value class),Puccinia recondita; [5],H (H shows more than 50% of control values)
same,Test G (control value class),Plasmopara viticola; [6],L (L shows 50% or less of control values)
CCn1c(-c2c(F)cc(OC)cc2F)c(-c2cccc(F)c2C)cc(Cl)c1=O [Compound 699],"Test B (control value class, gray mold on tomato)",Botrytis cinerea,H (H shows more than 50% of control values)
same,"Test C (control value class, Alternaria sooty spot on cabbage)",Alternaia brassicicola,H (H shows more than 50% of control values)
same,"Test D (control value class, powdery mildew on barley)",[1],H (H shows more than 50% of control values)
same,"Test E (control value class, brown rust on wheat)",Puccinia recondita,H (H shows more than 50% of control values)
same,"Test G (control value class, downy mildew on vine)",Plasmopara viticola; [7],L (L shows 50% or less of control values)
CCn1c(-c2c(F)cc(F)cc2F)c(-c2cc(F)cc(F)c2)ccc1=O [Compound 789],Test B (control value class),Botrytis cinerea; [8],H (H shows more than 50% of control values)
same,Test C (control value class),Alternaia brassicicola; [9],H (H shows more than 50% of control values)
same,Test D (control value class),[1]; [10],H (H shows more than 50% of control values)
same,Test E (control value class),Puccinia recondita; [11],H (H shows more than 50% of control values)
same,Test G (control value class),Plasmopara viticola; [12],L (L shows 50% or less of control values)
CCOc1cc(F)c(-c2c(-c3cccc(OC)c3Cl)cc(Cl)c(=O)n2CC)c(F)c1 [Compound 641],"Test B (control value class, gray mold on tomato)",Botrytis cinerea,H (H shows more than 50% of control values)
same,"Test C (control value class, Alternaria sooty spot on cabbage)",Alternaia brassicicola,H (H shows more than 50% of control values)
same,"Test D (control value class, powdery mildew on barley)",[1],H (H shows more than 50% of control values)
same,"Test E (control value class, brown rust on wheat)",Puccinia recondita,H (H shows more than 50% of control values)
same,"Test G (control value class, downy mildew on vine)",Plasmopara viticola; [7],H (H shows more than 50% of control values)
CCn1c(-c2c(F)cc(OC)cc2F)c(-c2cccc(F)c2C)ccc1=O [Compound 697],"Test B (control value class, gray mold on tomato)",Botrytis cinerea,H (H shows more than 50% of control values)
same,"Test C (control value class, Alternaria sooty spot on cabbage)",Alternaia brassicicola,H (H shows more than 50% of control values)
same,"Test D (control value class, powdery mildew on barley)",[1],H (H shows more than 50% of control values)
same,"Test E (control value class, brown rust on wheat)",Puccinia recondita,H (H shows more than 50% of control values)
same,"Test G (control value class, downy mildew on vine)",Plasmopara viticola; [7],H (H shows more than 50% of control values)
Cn1c(-c2c(F)cccc2F)c(-c2ccccc2F)ccc1=O [Compound 143],Test B control value,Botrytis cinerea; Gray mold on tomato,H (H shows more than 50% of control values)
same,Test C control value,Alternaia brassicicola; Alternaria sooty spot on cabbage,H (H shows more than 50% of control values)
same,Test D control value,[1]; Powdery mildew on barley,H (H shows more than 50% of control values)
same,Test E control value,Puccinia recondita; Brown rust on wheat,H (H shows more than 50% of control values)
same,Test G control value,"Plasmopara viticola; Downy mildew on vine, 250 ppm sprayed before inoculation, 7-10 days after inoculation",H (H shows more than 50% of control values)
CCn1c(-c2c(F)cccc2F)c(-c2ccc(OC)cc2)ccc1=O [Compound 301],Test B control value (gray mold on tomato),Botrytis cinerea; 250 ppm spray,H (H shows more than 50% of control values)
same,Test C control value (Alternaria sooty spot on cabbage),Alternaia brassicicola; 250 ppm spray,H (H shows more than 50% of control values)
same,Test D control value (powdery mildew on barley),[1]; 250 ppm spray,H (H shows more than 50% of control values)
same,Test E control value (brown rust on wheat),Puccinia recondita; 250 ppm spray,H (H shows more than 50% of control values)
same,Test G control value (downy mildew on vine),Plasmopara viticola; 7-10 days after inoculation,L (L shows 50% or less of control values)
Cn1c(-c2c(F)cccc2F)c(-c2cc(OCCC3OCCCO3)ccc2Cl)ccc1=O [Compound 318],Test B control value (gray mold on tomato),Botrytis cinerea; 250 ppm spray,H (H shows more than 50% of control values)
same,Test C control value (Alternaria sooty spot on cabbage),Alternaia brassicicola; 250 ppm spray,L (L shows 50% or less of control values)
same,Test D control value (powdery mildew on barley),[1]; 250 ppm spray,L (L shows 50% or less of control values)
same,Test E control value (brown rust on wheat),Puccinia recondita; 250 ppm spray,H (H shows more than 50% of control values)
same,Test G control value (downy mildew on vine),Plasmopara viticola; 7-10 days after inoculation,L (L shows 50% or less of control values)
CCn1c(-c2c(F)cc(OC)cc2F)c(-c2cc(OC)cc(F)c2Cl)cc(Cl)c1=O [Compound 627],"Test B (control value class, gray mold on tomato)",Botrytis cinerea,H (H shows more than 50% of control values)
same,"Test C (control value class, Alternaria sooty spot on cabbage)",Alternaia brassicicola,H (H shows more than 50% of control values)
same,"Test D (control value class, powdery mildew on barley)",[1],H (H shows more than 50% of control values)
same,"Test E (control value class, brown rust on wheat)",Puccinia recondita,H (H shows more than 50% of control values)
same,"Test G (control value class, downy mildew on vine)",Plasmopara viticola; [7],L (L shows 50% or less of control values)
O=c1c(Cl)cc(-c2cccc(Cl)c2Cl)c(-c2c(F)cccc2F)n1CC(F)F [Compound 367],Test B control value (gray mold on tomato),Botrytis cinerea; 250 ppm spray,H (H shows more than 50% of control values)
same,Test C control value (Alternaria sooty spot on cabbage),Alternaia brassicicola; 250 ppm spray,H (H shows more than 50% of control values)
same,Test D control value (powdery mildew on barley),[1]; 250 ppm spray,H (H shows more than 50% of control values)
same,Test E control value (brown rust on wheat),Puccinia recondita; 250 ppm spray,H (H shows more than 50% of control values)
same,Test G control value (downy mildew on vine),Plasmopara viticola; 7-10 days after inoculation,L (L shows 50% or less of control values)
CCn1c(-c2c(F)cc(F)cc2F)c(-c2cc(F)cc(F)c2)cc(Cl)c1=O [Compound 791],Test B (control value class),Botrytis cinerea; [8],H (H shows more than 50% of control values)
same,Test C (control value class),Alternaia brassicicola; [9],H (H shows more than 50% of control values)
same,Test D (control value class),[1]; [10],H (H shows more than 50% of control values)
same,Test E (control value class),Puccinia recondita; [11],H (H shows more than 50% of control values)
same,Test G (control value class),Plasmopara viticola; [12],L (L shows 50% or less of control values)
Cc1ccc(-c2cc(Cl)c(=O)n(C)c2-c2c(F)cccc2F)cc1 [Compound 274],Test B control value (gray mold on tomato),Botrytis cinerea; 250 ppm spray,H (H shows more than 50% of control values)
same,Test C control value (Alternaria sooty spot on cabbage),Alternaia brassicicola; 250 ppm spray,H (H shows more than 50% of control values)
same,Test D control value (powdery mildew on barley),[1]; 250 ppm spray,H (H shows more than 50% of control values)
same,Test E control value (brown rust on wheat),Puccinia recondita; 250 ppm spray,H (H shows more than 50% of control values)
same,Test G control value (downy mildew on vine),Plasmopara viticola; 7-10 days after inoculation,H (H shows more than 50% of control values)
CCN1C(=O)CCC(c2cc(OC)cc(OC)c2)=C1c1ccccc1F [Compound 225],Test B control value (gray mold on tomato),Botrytis cinerea; 250 ppm spray,H (H shows more than 50% of control values)
same,Test C control value (Alternaria sooty spot on cabbage),Alternaia brassicicola; 250 ppm spray,H (H shows more than 50% of control values)
same,Test D control value (powdery mildew on barley),[1]; 250 ppm spray,L (L shows 50% or less of control values)
same,Test E control value (brown rust on wheat),Puccinia recondita; 250 ppm spray,H (H shows more than 50% of control values)
same,Test G control value (downy mildew on vine),Plasmopara viticola; 7-10 days after inoculation,H (H shows more than 50% of control values)
COc1ccc(Cl)c(-c2ccc(=O)n(C3CC3)c2-c2c(F)cccc2F)c1 [Compound 496],Test B (control value class),Botrytis cinerea; [2],H (H shows more than 50% of control values)
same,Test C (control value class),Alternaia brassicicola; [3],H (H shows more than 50% of control values)
same,Test D (control value class),[1]; [4],H (H shows more than 50% of control values)
same,Test E (control value class),Puccinia recondita; [5],H (H shows more than 50% of control values)
same,Test G (control value class),Plasmopara viticola; [6],L (L shows 50% or less of control values)
